Among the data in PubChem BioAssay AID1645887 (National Center for Advancing Translational Sciences (NCATS), 2021) are activation values, retold here.

“And” between values parts separate entries of the source, which are not always exact repeats. Equal entries are not always repeated. Among all 16,000 compounds or so, about 40 (0.2%) were called active. Roughly 1% stayed inconclusive and do not appear here. Calls follow the shape of the dose curve; as a rule, active = well fitted activation curve with a large enough effect; inconclusive = small, poorly fitted or top-dose-only effect, or another doubt; inactive = no such curve, though single readings can be large or run the other way. The list shows a part of the results. Positions of bridges follow the written chain, without caps; N, C: chain ends. Non-standard residues stand in square brackets, D forms with d. Residues, ends and D or L forms follow the SMILES beside them. Orn = NCCC[C@H](N)C(=O)O; Mpa = O=C(O)CCS
% is scaled to controls: 0 for no effect and ±100 for the full control effect.

This assay concerns the target Rap guanine nucleotide exchange factor 4 (Homo sapiens) (UniProt Q8WZA2). Nature of the assay: Validation qHTS for agonist of cAMP-regulated guanine nucleotide exchange factor 4 (EPAC2).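 Also: exchange makes BODIPY-GDP fluorescence drop when released from Rap1B; series mostly up to about 150 µM.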 The conditions noted are these: EPAC2 Rap1B BODIPY-GDP exchange, fluorescence; activation: active compounds read high. In short, it runs like this: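 Fluorescent exchange assay: 100 nM EPAC2 with 250 nM RAP1B-BODIPY-GDP and 50 uM GDP; compound added, 5 min at room temperature, then read (ex 480/em 540 nm) every 5 min for 30 min. Normalized to 6.5 mM cAMP agonist control.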
Sequence of UniProt Q8WZA2 (Q8WZA2 whole entry, looked up): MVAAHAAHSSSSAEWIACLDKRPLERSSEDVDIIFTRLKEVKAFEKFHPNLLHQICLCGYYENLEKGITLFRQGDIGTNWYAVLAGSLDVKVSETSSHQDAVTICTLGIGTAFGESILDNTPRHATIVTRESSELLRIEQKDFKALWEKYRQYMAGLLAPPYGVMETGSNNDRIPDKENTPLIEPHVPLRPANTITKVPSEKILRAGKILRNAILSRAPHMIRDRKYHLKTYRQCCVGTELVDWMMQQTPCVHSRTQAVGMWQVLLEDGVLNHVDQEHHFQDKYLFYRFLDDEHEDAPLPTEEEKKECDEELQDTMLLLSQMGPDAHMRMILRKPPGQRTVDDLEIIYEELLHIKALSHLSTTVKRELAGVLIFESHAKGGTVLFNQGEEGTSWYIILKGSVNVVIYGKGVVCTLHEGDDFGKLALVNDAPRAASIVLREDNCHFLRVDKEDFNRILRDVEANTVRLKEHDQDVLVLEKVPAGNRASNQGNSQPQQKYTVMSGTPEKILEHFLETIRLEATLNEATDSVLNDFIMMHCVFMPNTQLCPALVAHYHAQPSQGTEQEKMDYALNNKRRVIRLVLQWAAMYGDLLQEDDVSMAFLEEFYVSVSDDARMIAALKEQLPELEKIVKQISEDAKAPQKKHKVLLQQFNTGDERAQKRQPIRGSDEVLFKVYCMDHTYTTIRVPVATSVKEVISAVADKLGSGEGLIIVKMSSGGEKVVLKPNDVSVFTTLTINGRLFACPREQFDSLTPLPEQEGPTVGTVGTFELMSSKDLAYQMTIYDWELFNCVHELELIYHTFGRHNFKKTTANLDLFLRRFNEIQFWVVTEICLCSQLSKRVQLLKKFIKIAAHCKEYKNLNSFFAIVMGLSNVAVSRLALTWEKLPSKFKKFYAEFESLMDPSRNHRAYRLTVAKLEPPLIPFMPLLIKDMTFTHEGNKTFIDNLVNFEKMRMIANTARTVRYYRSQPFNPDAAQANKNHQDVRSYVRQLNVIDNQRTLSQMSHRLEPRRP
Regarding `COC(=O)Oc1ccccc1C(=O)O`, the activation is inactive: -7.56%.
Take `COC(=O)N1CCC2(CCCN(Cc3ccc(C#N)cc3)C2)CC1`: the activation was inactive: -6.6%.
With `N#CCCN1CCN(Cc2ccccc2)CCC1=O` the figure was inactive: -4.29%; with `COC(=O)[C@@H]1CCCN1Cc1ccc2c(c1)CN(Cc1coc3ccccc3c1=O)CCO2`, inactive: -2.8%.
With `COCC(=O)Nc1cc(C(=O)N2CCN(c3ccc(Cl)cn3)CC2)c2c(c1)nc(C1CCC1)n2C` the figure was inactive: -6.02%; with `COc1ccccc1C1CN(Cc2c(C)nn(C)c2Cl)Cc2ccccc2O1` (centres undefined), inactive: -0.917%; with `O=C(CN1CCNCC1)NC1CCCCC1`, inactive: -6.19%.
With `Cc1ccccc1CN1[C@H](C)[C@H](c2ccccc2)OCCS1(=O)=O`, the activation is inactive: -26.8%.
The same measure for `COc1ccc(-n2c(=O)cnc3cnc(Oc4ccccc4)nc32)cc1`: inactive: -3.25%; for `CC(=O)N[C@@H](C=O)[C@@H](O)[C@H](O)[C@H](O)CO`: inactive: -11.2%; for `CCS(=O)(=O)N1CCC[C@H]2CN3CCc4cc(OC)ccc4[C@@H]3C[C@@H]21`: inactive: 1.88% and inactive: 11.8%.
With `O=C(NCCc1ccccc1)[C@@H]1CC=C[C@@H]2CCN(C3CC3)C(=O)[C@@H]21`, the activation was inactive: -1.27%.
With `COc1ccc(NC(=O)N2CCC3(CC2)CCN(C(=O)c2cnccn2)CC3)cc1` the figure was inactive: -7.18%; with `CC1(C)C=CC(=O)[C@]2(C)C1CC(=O)[C@]1(C)C2CC[C@@]2(C)C(c3ccoc3)OC(=O)C3OC321` (some centres undefined), inactive: -3.28%; with `O=C(c1csnn1)N1CCC2(CCN(Cc3ccccc3)CC2)CC1`, inactive: -5.47%.
The same measure for `O=C(c1cnccn1)N1CCC2(CCCN(Cc3ccccc3)C2)CC1`: inactive: -10.2%; for `O=c1cnc2cnc(OCc3ccccc3)nc2n1Cc1ccc(F)cc1`: inactive: -3.32%.
In the case of `CN(C)c1ccc(/C=C/c2ccnc3c(O)ccc(O)c23)cc1`, the activation was inactive: -13.4%.
With `O=C1C(=O)c2ccccc2C(O)=C1C1CCC(c2ccc(Cl)cc2)CC1` (centres undefined) the figure was inactive: -13.6% and inactive: -14.2%; with `NC(Cc1c[nH]c2ccccc12)C(=O)O` (centres undefined), inactive: 2.37%; with `O=S(=O)(/C=C/c1ccccc1)N1CCC(n2c(C3CCCO3)nc3cccnc32)CC1` (centres undefined), inactive: -0.911%.
With `COCCN1CCN(C(=O)c2cnn(-c3nccc(-c4cc5ccccc5o4)n3)c2C2CC2)CC1` the figure was inactive: -6.75%; with `CC(C)=CCC[C@@](C)(O)[C@H]1CC=C(C)CC1`, inactive: -19%; with `Clc1cccc[n+]1CCCC[n+]1ccccc1Cl`, inactive: -11%.
With `CC12CCC3c4ccc(OCc5ccccc5)cc4CCC3C1CC(O)C2O` (centres undefined) the figure was inactive: 5.41%.
In the case of `O=C(c1cnccn1)N1CCC[C@@]2(CCN(Cc3cc(C(F)(F)F)cc(C(F)(F)F)c3)C2)C1`, the activation is inactive: -6.14%.
Take `CN1[C@@H]2CC[C@H]1CC(OC(c1ccccc1)c1ccccc1)C2` (some centres undefined): the activation is inactive: -14.1% and inactive: -1.76% and inactive: -24.3%.
Take `Nc1ccc(S(=O)(=O)Nc2ccccn2)cc1`: the activation is inactive: -27.8% and inactive: 4.77%.
With `Cc1c(CCO)sc[n+]1CC(=O)c1ccc(F)cc1`, the activation was inactive: -31.3%.
On to `O=C(CCN1CCC(c2ccccc2)C1)c1ccc2c(c1)OCCO2` (centres undefined), for which the activation was inactive: -6.1%.
The same measure for `O=Cc1ccc(O)cc1`: inactive: -12.5%; for `N[C@@H](Cc1ccc(O)c(I)c1)C(=O)O`: inactive: -21%; for `OC[C@H]1O[C@H](n2cnc3c(NC4CCCC4)nc(Cl)nc32)[C@@H](O)[C@@H]1O`: inactive: -18.1%.
On to `Cc1cnc(C)c(-c2ccc(F)c3c2OC(CNC(=O)/C=C/c2cccs2)C3)n1` (centres undefined), for which the activation was inactive: -22.8%.
With `CCNc1ncc2nc(-c3ccccc3)c(=O)n(C[C@H]3CCCO3)c2n1` the figure was inactive: -15%.
With `Cc1cc(Nc2ccccc2C(=O)O)ccc1Cl` the figure was inactive: -22.6%.
With `Cc1c(C(=O)NCC(C)(C)CN(C)C)cnn1-c1nccc(-c2ccccc2F)n1` the figure was inactive: -18.3%.
Take `O=c1[nH]c(=O)c2ccccc2o1`: the activation is inactive: -15.5%.
The same measure for `O=S1(=O)c2cccc3cccc(c23)N1CCCN1CCN(c2ccc(F)cc2)CC1`: inactive: -22.2%; for `COc1cccc(CN2CCC3(CCC(CNC(=O)c4ccccc4)O3)CC2)c1` (centres undefined): inactive: -6.35%.
The same measure for `Nc1ncnc2c1ncn2C1CCCO1` (centres undefined): inactive: -0.22% and inactive: -42.9%.
With `O=C1CC[C@H](O)CCN1[C@H](CSc1ccccc1)Cc1ccccc1` the figure was inactive: -32.1%.
`COCC1CCCN(Cc2ccc3c(c2)CN(C(=O)c2cn4ccc(C)cc4n2)CCO3)C1` (centres undefined): the activation is inactive: -7.53%.
Turning to `Cc1noc(C)c1CC(=O)N1CCOc2c(cc(-c3nc4ccccc4s3)cc2OC2CCOC2)C1` (centres undefined), the activation is inactive: 1.46%.
Take `Cc1cc(O)c2ccccc2c1O`: the activation is inactive: 10.5%.
The same measure for `O=c1ccc2ccccc2o1`: inactive: 3.12% and inactive: -15.7%.
The same measure for `COc1cccc(Cn2c(=O)c(-c3cccs3)nc3cnc(OC)nc32)c1`: inactive: -7.01%.
The same measure for `CC1(C)C=Cc2cc3ccc(=O)oc3cc2O1`: inactive: -10.1%; for `NCCOB(c1ccccc1)c1ccccc1`: inactive: -12.2% and inactive: -19.7% and inactive: -21.3%; for `CCOc1ccc(C[C@H]2NC(=O)CCSSC[C@@H](C(=O)N3CCC[C@H]3C(=O)N[C@@H](CCCN)C(=O)NCC(N)=O)NC(=O)[C@H](CC(N)=O)NC(=O)[C@H]([C@@H](C)O)NC(=O)[C@H]([C@@H](C)CC)NC2=O)cc1` ([Mpa][dY](Et)ITNCP[Orn]G-NH2; disulfide 1-6): inactive: 0.339%.
As to H-EQKQLQ-OH, the activation is inactive: 1.76%.
The same measure for `Cc1noc(C)c1-c1nccc(N(C)C)n1`: inactive: -13.8%.
Take `COc1ccc(-c2coc3ccc(OC4OC(COC(C)=O)C(OC(C)=O)C(OC(C)=O)C4OC(C)=O)c(OC(C)=O)c3c2=O)cc1` (centres undefined): the activation is inactive: -17.1%.
`COc1cc(-c2ccc(-[n+]3nc(-c4ccccc4)nn3-c3ccc([N+](=O)[O-])cc3)c(OC)c2)ccc1-[n+]1nc(-c2ccccc2)nn1-c1ccc([N+](=O)[O-])cc1`: the activation is inactive: -6.4%.
